Results published in PMC4336329 (PLoS ONE, 2015).
Hit rate of the full screen: of about 310,000 compounds, about 2,200 (0.71%) showed an effect of 50% or more. Effects have a minus sign here. This is one part of the list.

target: human ether-à-go-go-related gene (hERG) potassium channel (human, UniProt Q12809); assay: primary screen, population patch clamp on CHO cells stably expressing hERG
Sequence (Q12809 whole entry, looked up): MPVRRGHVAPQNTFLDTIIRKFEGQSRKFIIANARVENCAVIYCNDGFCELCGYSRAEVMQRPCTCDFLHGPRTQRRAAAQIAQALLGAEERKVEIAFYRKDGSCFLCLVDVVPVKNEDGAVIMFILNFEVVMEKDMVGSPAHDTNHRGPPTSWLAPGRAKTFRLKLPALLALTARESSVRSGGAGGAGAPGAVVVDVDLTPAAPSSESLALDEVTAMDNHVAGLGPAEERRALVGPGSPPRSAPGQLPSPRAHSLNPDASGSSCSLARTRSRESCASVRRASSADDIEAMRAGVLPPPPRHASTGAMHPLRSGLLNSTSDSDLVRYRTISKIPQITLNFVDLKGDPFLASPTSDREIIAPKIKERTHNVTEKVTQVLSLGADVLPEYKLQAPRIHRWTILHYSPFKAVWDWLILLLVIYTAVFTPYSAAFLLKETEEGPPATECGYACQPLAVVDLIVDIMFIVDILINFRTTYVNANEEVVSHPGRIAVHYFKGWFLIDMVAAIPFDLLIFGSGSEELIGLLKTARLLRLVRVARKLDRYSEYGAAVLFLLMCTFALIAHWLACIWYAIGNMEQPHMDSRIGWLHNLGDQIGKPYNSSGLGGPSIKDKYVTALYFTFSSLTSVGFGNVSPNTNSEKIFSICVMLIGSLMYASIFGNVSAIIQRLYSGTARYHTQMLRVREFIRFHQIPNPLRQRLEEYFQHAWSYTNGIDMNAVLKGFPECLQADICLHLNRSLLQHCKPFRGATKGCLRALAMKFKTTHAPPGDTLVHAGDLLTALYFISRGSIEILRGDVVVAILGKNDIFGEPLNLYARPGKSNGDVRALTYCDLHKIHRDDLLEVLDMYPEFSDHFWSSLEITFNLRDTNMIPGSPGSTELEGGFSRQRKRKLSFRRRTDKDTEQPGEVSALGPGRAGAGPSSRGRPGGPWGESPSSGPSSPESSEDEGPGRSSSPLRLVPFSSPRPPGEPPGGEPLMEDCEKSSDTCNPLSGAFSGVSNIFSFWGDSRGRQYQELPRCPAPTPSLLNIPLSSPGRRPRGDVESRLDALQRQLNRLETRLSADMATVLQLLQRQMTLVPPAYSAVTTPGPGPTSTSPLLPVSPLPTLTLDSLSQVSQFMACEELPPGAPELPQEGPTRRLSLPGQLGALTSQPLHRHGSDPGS

First: Fc1cccc(CNCCc2c[nH]c3ccccc23)c1.O=C(O)C(=O)O
Second: Cc1nn(CC(=O)NCCc2ccccc2)c(=O)c2cc3occc3n12
The “hERG current change (%, negative = inhibition) at 1uM” value of the first is higher: 10% for the first, 8.76% for the second.

First: O=C(Nc1ccccc1O)c1nc(Cl)ccc1Cl
Second: COC(=O)c1ccccc1NC(=O)C1CC(c2ccccc2O)=NO1 (stereo not shown)
The “hERG current change (%, negative = inhibition) at 1uM” value of the first is higher: 13.8% for the first, 10.4% for the second.

Going from `O=C(O)CNC(=O)CC1S/C(=N/N=C2\CSC(=O)N2)NC1=O` (stereo not shown) to `O=C(CC1SC(N2CCCCC2)=NC1=O)Nc1cccc(C(=O)Nc2ncccc2O)c1` (stereo not shown), the “hERG current change (%, negative = inhibition) at 1uM” value rises from 4.74% to 9.67%.

Compared with `Nc1nc(-c2ccc(Oc3ccccc3)cc2)cs1`, `N#Cc1ccc(-c2ccccc2)nc1Sc1ccc(F)cc1` is higher in “hERG current change (%, negative = inhibition) at 1uM” value: 5.75% for the first, 9.74% for the second.

Going from `CSCCC(NC(=O)c1cccc(S(=O)(=O)N2CCOCC2)c1)C(=O)Nc1ccc(F)cc1` (stereo not shown) to `COc1ccc(CCNC(=O)c2cc([N+](=O)[O-])ccc2N2CCOCC2)cc1`, the “hERG current change (%, negative = inhibition) at 1uM” value rises from -0.571% to 1.7%.

First: Cc1ccc2c(COC(=O)c3ccccc3Br)cc(=O)oc2c1
Second: CCS(=O)(=O)c1ccc2oc(Nc3ccccc3Cl)nc2c1
The “hERG current change (%, negative = inhibition) at 1uM” value of the first is higher: 16% for the first, 9.22% for the second.

Compared with `COCCNC(=O)C(=O)Nc1cc2c3c(c1)C(C)C(=O)N3CCC2` (stereo not shown), `COc1cc(NC(=O)C2CCCCC2)c(OC)cc1NC(=O)CCC(=O)NCc1ccco1` is lower in “hERG current change (%, negative = inhibition) at 1uM” value: 16.6% for the first, 0.466% for the second.

Compared with `COC(=O)C1=C(N)OC2=C(C(=O)CC(C)(C)C2)C1c1ccccc1OC` (stereo not shown), `COc1cc(C2C3=C(CC(C)(C)CC3=O)Nc3ccccc3N2C(C)=O)cc(OC)c1OC` (stereo not shown) is higher in “hERG current change (%, negative = inhibition) at 1uM” value: 7.24% for the first, 12.4% for the second.

Compared with `COc1ccc(/C=N\NC(=O)c2ccc(=O)[nH]n2)cc1O`, `COc1ccc(S(=O)(=O)Nc2ccc3c(c2)OCO3)cc1C` is lower in “hERG current change (%, negative = inhibition) at 1uM” value: 16.7% for the first, 0.107% for the second.

Compared with `O=C(NCc1ccccc1)C1CC2CCCC(C1)C2=O` (stereo not shown), `COc1ccc(S(=O)(=O)N2CCC(C(=O)NCc3ccncc3)CC2)cc1C` is lower in “hERG current change (%, negative = inhibition) at 1uM” value: 9.84% for the first, 9.02% for the second.

Going from `CCOC(=O)CSc1nnc([C@@H](NC(=O)OC(C)(C)C)C(C)C)o1` to `CCNc1nc(NC#N)nc(SCC(=O)OCC)n1`, the “hERG current change (%, negative = inhibition) at 1uM” value falls from 16.5% to 7.19%.

Going from `O=C(/C=C/c1ccc(Cl)cc1)N1CCN(Cc2ccccc2)CC1` to `S=C(Nc1ccc2c(c1)OCO2)N1CCN(Cc2ccco2)CC1`, the “hERG current change (%, negative = inhibition) at 1uM” value rises from -12.8% to 14.1%.

Going from `CCOc1ccc(CSCCNC(=S)Nc2ccccc2)cc1` to `Br.OCCn1c(-c2ccc(F)cc2)csc1=Nc1ccccc1`, the “hERG current change (%, negative = inhibition) at 1uM” value rises from -3.73% to 8.62%.

Going from `CC(=NCCCN1CCOCC1)c1c(O)n(Cc2ccccc2)c(=O)[nH]c1=O` to `O=C(O)CN1C(=O)/C(=C\c2cn(CC(=O)N3CCOCC3)c3ccccc23)SC1=S`, the “hERG current change (%, negative = inhibition) at 1uM” value rises from -4.14% to 14.1%.

Going from `CCN(CC)CCOCCOc1ccc(Cl)c2ccccc12` to `COc1ccc(C)cc1S(=O)(=O)N(C)CC(=O)NCc1ccncc1`, the “hERG current change (%, negative = inhibition) at 1uM” value rises from 0.302% to 14.1%.

First: COc1ccc(C(=O)N2CCN(C)C(=O)[C@@H]2C)cc1OC1CCN(C(C)C)CC1
Second: COc1cccc(CN2CCC(C(=O)N3CCC(C)CC3)CC2)c1.O=C(O)C(=O)O
The “hERG current change (%, negative = inhibition) at 1uM” value of the first is lower: 3.72% for the first, 10.5% for the second.

First: CCc1cccc(NS(=O)(=O)c2ccc3c(c2)oc(=O)n3C)c1
Second: CS(=O)(=O)c1ccc2c(c1)SC1=NC(=O)/C(=C/c3ccco3)C(=N)N12
The “hERG current change (%, negative = inhibition) at 1uM” value of the first is lower: 6.52% for the first, 17.5% for the second.

Compared with `CC(=O)c1c(C)[nH]c(C(=O)OCC(=O)C(C)(C)C)c1C`, `Cc1cc(C(C)(C)C)cc(C)c1N.Cl` is higher in “hERG current change (%, negative = inhibition) at 1uM” value: 1.8% for the first, 8.95% for the second.

First: Cc1ccc(C(=O)N2CCN(c3ccc([N+](=O)[O-])c(NCc4ccco4)c3)CC2)cc1
Second: CCOC(=O)c1cnc2c(OC)cccc2c1N1CCN(c2ccc(OC)cc2)CC1
The “hERG current change (%, negative = inhibition) at 1uM” value of the first is lower: -5.23% for the first, 7.99% for the second.

First: Cc1cc(C)cc(NC(=O)CCc2c(C)nn(-c3ccc(N4CCOCC4)nn3)c2C)c1
Second: COc1ccccc1-c1c(C)nn2c(N3CCC(C)CC3)cc(C)nc12
The “hERG current change (%, negative = inhibition) at 1uM” value of the first is lower: 9.8% for the first, 10.7% for the second.

Compared with `c1ccc(Oc2cccc3cccnc23)nc1`, `O=C1CC[C@@H](CN(Cc2ccccn2)Cc2nc(Cc3cccc(C(F)(F)F)c3)no2)N1` is lower in “hERG current change (%, negative = inhibition) at 1uM” value: 10.7% for the first, -21.5% for the second.

Compared with `COC(=O)[C@H](CC(C)C)NS(=O)(=O)N(Cc1ccccc1)[C@@H](CC(C)C)C(=O)OC`, `COc1ccccc1N(CC(=O)NC1CCCCC1)S(=O)(=O)c1cccs1` is lower in “hERG current change (%, negative = inhibition) at 1uM” value: 11.2% for the first, 2.78% for the second.

Going from `CCOc1ccc(N2C(=O)CC(Sc3nc(C)cc(C)c3C#N)C2=O)cc1` (stereo not shown) to `COc1cccc(CSc2nc3nc(C)cc(C)n3n2)c1`, the “hERG current change (%, negative = inhibition) at 1uM” value rises from 6.39% to 10.4%.

First: CCOc1cc(CNS(=O)(=O)c2cn(C)cn2)cc(OCC)c1OCC
Second: CCOC(=O)C1(Cc2cccc(OC)c2)CCCN(C(=O)c2cc(C)oc2C)C1 (stereo not shown)
The “hERG current change (%, negative = inhibition) at 1uM” value of the first is higher: 19.1% for the first, 4.99% for the second.

First: COc1ccc(CC(NC(C)=O)C(=O)NC2CCN(C(=O)Nc3ccc(C#N)cc3)CC2)cc1OC (stereo not shown)
Second: O=C(N[C@@H](Cc1ccccc1)C(=O)OCc1ccccc1)c1nc[nH]c1C(=O)NC1CC[NH2+]CC1.[Cl-]
The “hERG current change (%, negative = inhibition) at 1uM” value of the first is lower: 1.74% for the first, 11.6% for the second.

First: CN1CC2CCCC3(C1)C(=O)NC1(CCCCC1)N=C23 (stereo not shown)
Second: Cc1nn(C)cc1C(C(=O)NC1CCCCC1)N(Cc1ccc(F)cc1)C(=O)c1cnccn1 (stereo not shown)
The “hERG current change (%, negative = inhibition) at 1uM” value of the first is lower: 5.99% for the first, 12.4% for the second.

Going from `Cc1ccccc1OCC(=O)Nc1nc(C)c(C(=O)N(C)C)s1` to `COc1ccc(C2NC(=O)NC3=C2CCc2ccccc23)cc1` (stereo not shown), the “hERG current change (%, negative = inhibition) at 1uM” value rises from 11.6% to 12.9%.

In the case of `Nc1ccc(C#Cc2ccc3oc4ccccc4c(=O)c3c2)cc1`, the “hERG current change (%, negative = inhibition) at 1uM” value is reported as 12.1%.
